{
  "source": "PubChem BioAssay AID1476",
  "about": "(National Center for Advancing Translational Sciences (NCATS), 2009)",
  "note": "The whole screen tested about 200,000 compounds, of which about 4,500 (2.2%) were called active. The inconclusive results got no clear call from the source; some entries with a clear call stand among them for comparison. The call rests on the fitted dose curve; in most records, active means well fitted inhibition curve with a large enough effect; inconclusive means small, poorly fitted or top-dose-only effect, or effect the other way; inactive means flat fitted curve, though single readings scatter. Potencies beside an inconclusive call are fits to weak or partial responses and may not hold up. Potency means the concentration at half of the fitted maximal effect; tags describe the fitted curve by direction and shape.",
  "data": [
    {"target": "Cruzipain (Trypanosoma cruzi) (UniProt P25779)", "sequence (P25779 whole entry, looked up)": "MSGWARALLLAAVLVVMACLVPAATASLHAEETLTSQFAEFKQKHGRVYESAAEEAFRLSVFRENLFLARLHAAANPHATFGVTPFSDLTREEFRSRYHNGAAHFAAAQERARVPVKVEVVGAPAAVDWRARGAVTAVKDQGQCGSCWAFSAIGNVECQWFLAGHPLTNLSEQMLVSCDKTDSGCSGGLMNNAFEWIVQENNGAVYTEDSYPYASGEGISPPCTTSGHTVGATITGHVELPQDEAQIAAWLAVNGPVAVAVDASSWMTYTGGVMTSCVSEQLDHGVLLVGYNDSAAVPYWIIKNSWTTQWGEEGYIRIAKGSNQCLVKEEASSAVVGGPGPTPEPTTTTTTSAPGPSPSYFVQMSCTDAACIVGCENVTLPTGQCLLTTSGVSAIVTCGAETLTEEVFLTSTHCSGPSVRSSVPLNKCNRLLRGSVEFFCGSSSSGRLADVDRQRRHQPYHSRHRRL", "test": "qHTS Assay for Promiscuous and Specific Inhibitors of Cruzain (without detergent); further: nearly all actives have a fitted effect of over 40% in size;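 on max response, negative = inhibition: plate controls were enzyme without inhibitor for no effect and buffer without enzyme for full effect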", "conditions": "purified cruzain, Z-FR-AMC fluorescence, no detergent", "summary_of_the_method": "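Detergent-free condition (0.00005% Triton X-100) in acetate buffer pH 5.5 with DTT. 1.5 nM enzyme and compound were pre-mixed 15 min, then 2 uM Z-FR-AMC substrate added; reaction progress from fluorescence change between first and third reads (60 s).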", "values": [
      {"smiles": "COc1ccc(-c2cc3nc(C)c(CCC(=O)NC(C)c4ccccc4)c(C)n3n2)c(OC)c1", "note": "(centres undefined)", "Potency": "inconclusive: 25.1 µM [activator, partial curve]"},
      {"smiles": "COC(=O)CC(=O)CSc1nc2cc(C(=O)NCC(C)C)ccc2c(=O)n1CCc1ccccc1", "max response, negative = inhibition": "inactive: 12.4%"},
      {"smiles": "C=C(C)C1Cc2c(ccc3c2OC2COc4cc(OC)c(OC)cc4C2C3=O)O1", "note": "(centres undefined)", "Potency": "inconclusive: 39.8 µM [activator, single point]"},
      {"smiles": "O=C(CSc1nnnn1-c1ccc2c(c1)OCCO2)Nc1nc2c(s1)CCCC2", "Potency": "inconclusive: 31.6 µM [inhibitor, single point]"},
      {"smiles": "CCOC(=O)c1ccccc1NC(=O)COC(=O)CC(C)(C)CC1=NS(=O)(=O)c2ccccc2N1", "Potency": "inconclusive: 39.8 µM [activator, single point]"},
      {"smiles": "COc1ccc(/C=C2\\CCCC3C2=NC(=S)NC3c2ccc(OC)cc2)cc1", "note": "(centres undefined)", "Potency": "active: 25.1 µM"},
      {"smiles": "COc1ccc(S(=O)(=O)NCC(c2ccc(N(C)C)cc2)N2CCc3ccccc32)cc1F", "note": "(centres undefined)", "Potency": "inconclusive: 31.6 µM [inhibitor, single point]"},
      {"smiles": "O=C(O)c1c(Cl)c(Cl)c(Cl)c(Cl)c1-c1c2cc(I)c(=O)c(I)c-2oc2c(I)c(O)c(I)cc12", "max response, negative = inhibition": "inactive: -28.2%"},
      {"smiles": "CC(=O)c1cc2c(cc1NC(=O)c1cc3nc(C(C)C)cc(C(F)(F)F)n3n1)OCO2", "Potency": "inconclusive: 25.1 µM [activator, partial curve]"},
      {"smiles": "O=C(Nc1ccc(N2CCCCC2)cc1)c1ccc(F)cc1", "Potency": "active: 25.1 µM"},
      {"smiles": "Cc1cc(Nc2ccc(Br)c(C)c2)n2nc(-c3ccco3)nc2n1", "max response, negative = inhibition": "inactive: -10.5%"},
      {"smiles": "CCOC(=O)c1ccc(NC(=O)Cn2c3ncccc3c(=O)n2-c2ccc(C)c(C)c2)cc1", "Potency": "inconclusive: 39.8 µM [inhibitor, single point]"},
      {"smiles": "Cc1cc(C)n(-c2nc(C)c(C)c(=O)n2CC(=O)Nc2cccc([N+](=O)[O-])c2)n1", "max response, negative = inhibition": "inactive: 3.48%"},
      {"smiles": "COc1ccccc1NC(=O)C1CCCN(c2ncnc3onc(-c4ccc(F)cc4)c23)C1", "note": "(centres undefined)", "Potency": "inconclusive: 39.8 µM [activator, single point]"},
      {"smiles": "CCC(C)NC(=O)c1c(C)oc2nc(C)nc(N3CCOCC3)c12", "note": "(centres undefined)", "max response, negative = inhibition": "inactive: -5.67%"},
      {"smiles": "CCOc1ccc(N(C(=O)/C=C/C(=O)Nc2cc(C)on2)C(C(=O)NC2CCCC2)c2ccccc2C)cc1", "note": "(centres undefined)", "Potency": "inconclusive: 15.8 µM [activator, single point]"},
      {"smiles": "COc1cccc(NC(=O)C2CCN(S(=O)(=O)c3ccc4[nH]c5c(c4c3)CCCCC5)CC2)c1", "Potency": "active: 20 µM"},
      {"smiles": "CCCCCCCCCCCCCCCCCC(=O)OC(CC(=O)O)C[N+](C)(C)C", "note": "(centres undefined)", "Potency": "inconclusive: 12.6 µM [activator, partial curve]"},
      {"smiles": "CC(=O)Nc1cccc(NC(=O)CSc2ccc(-c3sc(-c4ccccc4)nc3C)nn2)c1", "Potency": "inconclusive: 31.6 µM [activator, partial curve]"},
      {"smiles": "COc1ccc(C2SCC(=O)N2c2nnc(C34CC5CC(CC(C5)C3)C4)s2)cc1", "note": "(centres undefined)", "Potency": "inconclusive: 39.8 µM [inhibitor, single point]"},
      {"smiles": "COC(=O)N1CCC2(CC1)CN(C(=O)Nc1cccc(C#N)c1)C2", "max response, negative = inhibition": "inactive: 4.24%"},
      {"smiles": "c1ccc(-c2cc3c(NCC4COc5ccccc5O4)ncnc3s2)cc1", "note": "(centres undefined)", "Potency": "inconclusive: 31.6 µM [inhibitor, single point]"},
      {"smiles": "Cc1ccc(-n2nc(-c3ccccc3)c3cnc4cc5c(cc4c32)OCO5)cc1C", "max response, negative = inhibition": "inactive: -0.237%"},
      {"smiles": "CCCCc1ccc(N2C(=O)[C@@H]3C(CC(N)=O)NC4(C(=O)Nc5ccc(F)cc54)[C@@H]3C2=O)cc1", "note": "(some centres undefined)", "Potency": "inconclusive: 25.1 µM [activator, single point]"},
      {"smiles": "CCN1C(=O)NC(=O)/C(=C/c2cc(C)n(-c3sc(C)c(C)c3C#N)c2C)C1=O", "Potency": "inconclusive: 39.8 µM [activator, single point]"},
      {"smiles": "CC(C)CCNC(=O)C(=O)Nc1c2c(nn1-c1ccc(Cl)cc1)CSC2", "Potency": "inconclusive: 12.6 µM [inhibitor, partial curve]"},
      {"smiles": "Cc1nn2c(=O)cc(COC(=O)c3cccc(NC(=O)c4ccc(F)cc4)c3)nc2s1", "max response, negative = inhibition": "inactive: -1.98%"},
      {"smiles": "COc1ccc(C(=O)n2nc(-c3ccc(C)cc3)nc2N)cc1OC", "Potency": "inconclusive: 25.1 µM [inhibitor, single point]"},
      {"smiles": "Fc1cc(Br)ccc1Nc1nc2ccccc2n2nnnc12", "Potency": "inconclusive: 25.1 µM [inhibitor, single point]"},
      {"smiles": "Cc1cccc(Nc2nnc(-c3ccc(C)c(S(=O)(=O)N4CCN(C)CC4)c3)c3ccccc23)c1", "max response, negative = inhibition": "inactive: -11.6%"},
      {"smiles": "Clc1ccc(C(c2ccc(Cl)cc2)n2cc[n+](CC(OCc3ccc(Cl)cc3Cl)c3ccc(Cl)cc3Cl)c2)cc1", "note": "(centres undefined)", "Potency": "inconclusive: 3.16 µM [inhibitor, partial curve, poor fit]"},
      {"smiles": "Cc1nc2cnc(N(C)C)nc2n(C)c1=O", "max response, negative = inhibition": "inactive: 2.3%"},
      {"smiles": "Cc1cccc(NC(=O)CSc2nc3n[nH]c(C)c3c(=N)n2-c2cccc(Cl)c2)c1", "Potency": "inconclusive: 39.8 µM [activator, single point]"},
      {"smiles": "CCCNC(=O)N1CCN(c2nc(C(C)C)c3c(c2C#N)CC(C)(C)OC3)CC1", "Potency": "inconclusive: 31.6 µM [activator, single point]"},
      {"smiles": "Cc1cc(NC(=O)c2cccc(S(=O)(=O)N3CCCCCC3)c2)n(-c2ccccn2)n1", "Potency": "inconclusive: 15.8 µM [activator, partial curve]"},
      {"smiles": "Cn1c(=O)c2c(nc(CN3CCN(c4ccccc4F)CC3)n2Cc2ccc(F)cc2)n(C)c1=O", "Potency": "inconclusive: 25.1 µM [activator, single point]"},
      {"smiles": "COc1ccc(/C=N/Nc2cc(C)nc(-n3nc(C)cc3C)n2)c(OC)c1", "Potency": "inconclusive: 25.1 µM [activator, single point]"},
      {"smiles": "Cc1cc(C)cc(N2CCn3c2nc2c3c(=O)n(Cc3c(F)cccc3Cl)c(=O)n2C)c1", "max response, negative = inhibition": "inactive: 2.51%"},
      {"smiles": "O=S(=O)(NCC(c1ccco1)N1CCN(c2ccccc2)CC1)c1cc(F)ccc1F", "note": "(centres undefined)", "max response, negative = inhibition": "inactive: -4.95%"},
      {"smiles": "CCOc1ccc(C(C)C)cc1S(=O)(=O)n1nc(C)cc1C", "Potency": "inconclusive: 39.8 µM [inhibitor, single point]"},
      {"smiles": "Cc1ccc(C)c(OCCn2cc(/C=C(\\C#N)C(=O)NCc3ccco3)c3ccccc32)c1", "Potency": "inconclusive: 39.8 µM [inhibitor, single point]"},
      {"smiles": "CCCCNc1oc(-c2ccc(OC)cc2)nc1S(=O)(=O)c1ccccc1", "Potency": "inconclusive: 39.8 µM [inhibitor, single point]"},
      {"smiles": "O=C1CCCCC2CCCCN12", "note": "(centres undefined)", "max response, negative = inhibition": "inactive: -0.704%"},
      {"smiles": "CCCNC(=O)c1cnn(-c2ccc(C)c(C)c2)c1C1CCN(C(=O)OC(C)(C)C)CC1", "Potency": "inconclusive: 31.6 µM [activator, single point]"},
      {"smiles": "O=C(c1cnn(C(=O)COc2ccc(Cl)cc2)c1)c1ccccc1O", "Potency": "inconclusive: 39.8 µM [inhibitor, single point]"},
      {"smiles": "COc1ccccc1N1CCN(c2ncnc3c2cnn3-c2ccc(C)cc2)CC1", "max response, negative = inhibition": "inactive: -1.92%"},
      {"smiles": "FC(F)(F)c1cc(Nc2nc3ccccc3c3nncn23)ccc1Cl", "Potency": "inconclusive: 3.98 µM [activator, single point]"},
      {"smiles": "CCCCCSc1nnc2c(n1)[nH]c1c(C)cccc12", "Potency": "inconclusive: 39.8 µM [inhibitor, single point]"},
      {"smiles": "COc1ccc(/C=N/Nc2ccc([N+](=O)[O-])cc2)cc1Cn1cc([N+](=O)[O-])cn1", "Potency": "active: 20 µM"},
      {"smiles": "COC(=O)CNC(=O)CN1C(=O)N(c2cccc(Cl)c2)C(N(O)C(=O)Nc2cccc(Cl)c2)C1(C)C", "note": "(centres undefined)", "Potency": "inconclusive: 39.8 µM [activator, single point]"},
      {"smiles": "COc1ccc(NC(=O)c2cc3c([nH]c4ccccc43)c(C)n2)cc1", "Potency": "inconclusive: 25.1 µM [inhibitor, single point]"},
      {"smiles": "COc1cccc(C(=O)NC(Cc2ccccc2)c2ccc3c(c2)OCCCO3)c1", "note": "(centres undefined)", "Potency": "inconclusive: 31.6 µM [inhibitor, single point]"},
      {"smiles": "Cc1cc(/C=N/NC(=O)c2cccs2)c(C)n1-c1ccccc1", "Potency": "inconclusive: 39.8 µM [inhibitor, single point]"},
      {"smiles": "CCN(CC)c1nn2c(=O)c(C(=O)NCCc3ccccc3C)cnc2s1", "max response, negative = inhibition": "inactive: 5.04%"},
      {"smiles": "CCOc1cc2c(cc1OCC)C(CC(=O)O)N(C(=O)Nc1ccc(Br)c(C)c1)CC2", "note": "(centres undefined)", "Potency": "inconclusive: 39.8 µM [activator, single point]"},
      {"smiles": "CCCCOc1ccc(C(=O)NCCc2sc3nc(-c4ccc(OC)cc4)nn3c2C)cc1", "max response, negative = inhibition": "inactive: 6.78%"},
      {"smiles": "CCCCOc1ccc(C(=O)NCc2cn3cccc(C)c3n2)cc1", "max response, negative = inhibition": "inactive: -6.46%"},
      {"smiles": "Cc1ccc(C(=O)Nc2ccc(C(=O)O)cc2)cc1S(=O)(=O)N1CCC(C)CC1", "max response, negative = inhibition": "inactive: -2.15%"},
      {"smiles": "CC(=O)OC1CCC2(C)C(=CC=C3C2CCC2(C)C3CCC2C(C)/C=C/C(C)C(C)C)C1(C)C", "note": "(centres undefined)", "max response, negative = inhibition": "inactive: -7.52%"},
      {"smiles": "Fc1ccccc1N1CCN(c2ncnc3onc(-c4ccc(Cl)cc4)c23)CC1", "max response, negative = inhibition": "inactive: 1.09%"},
      {"smiles": "COC(=O)[C@@]1(Cc2ccc(OC)cc2)[C@H]2c3cc(C(=O)N(C)C)n(C)c3C[C@H]2CN1C(=O)c1ccccc1", "Potency": "inconclusive: 31.6 µM [activator, single point]"},
      {"smiles": "COc1cc2c(cc1NC(=O)c1ccncc1)oc1ccccc12", "Potency": "inconclusive: 39.8 µM [activator, single point]"},
      {"smiles": "Cc1cc(CN2CCCCC2)c(O)c(CN2CCCCC2)c1", "max response, negative = inhibition": "inactive: -9.32%"},
      {"smiles": "CCOc1ccc(NC(=O)c2cc3c(=O)n(C)c4ccccc4c3n2C)cc1", "Potency": "inconclusive: 39.8 µM [activator, single point]"}
    ]}
  ]
}
